Experimental data as given in a collection of fitness landscapes (doi:10.1016/j.celrep.2020.107928).
The full ranking holds about 81,000 sequences; the median of “one-hybrid fitness for binding parS DNA” is about -0.17, and the highest 2% start at about 0.51. This is one part of the list.

B1: Caulobacter ParB omega fusion; a variant is named by its letters at X, in order, B8GW30 (parent)
chain: MESVVVGEPGMSEGRRGLGRGLSALLGEVDAAPAQAPGEQLGGSREAPIEILQRNPDQPRRTFREEDLEDLSNSIREKGVLQPILVRPSPDTAGEYQIVAGERAWRAAQRAGLKTVPIMVRELDDLAVLEIGIIENVQRADLNVLEEALSYKVLMEKFERTQENIAQTIGKSXSHVANXMRLLXLPDEVQSYLVSGELTAXHARAIAAAADPVALAKQIIEGGLSVRETEALARKAPNLSAGKSKGGRPPRVKDTDTQALESDLSSVLGLDVSIDHRGSTGTLTITYATLEQLDDLCNRLTRGI

Variants of: B1
Test: one-hybrid fitness for binding parS DNA (scaled: cognate 1, non-cognate 0); higher = stronger binding
Settings: with parS DNA site
Procedure, shortened: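 On M9-minus-histidine containing 0.1 mM IPTG and 5 mM 3-AT, E. coli USO cells with a HIS3 reporter, site 19 bp from the promoter, grew 48 hours at 37°C to select Caulobacter ParB libraries randomised at four specificity codons. Plasmids from before and after were Illumina-sequenced, with three replicate libraries pooled and variants under 10 reads left out. Fitness is the log change in variant-to-wild-type read ratio, rescaled against cognate and non-cognate.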

| Variant | one-hybrid fitness for binding parS DNA |
| --- | --- |
| TKRS | ≤ 0.2 |
| REDE | ≤ 0.2 |
| QLSN | ≤ 0.2 |
| IFDS | ≤ 0.2 |
| AWYG | ≤ 0.2 |
| DTMG | ≤ 0.2 |
| DNEV | ≤ 0.2 |
| FYYG | ≤ 0.2 |
| TVKA | ≤ 0.2 |
| TDGD | ≤ 0.2 |
| TTHY | ≤ 0.2 |
| VLDM | ≤ 0.2 |
| SFVT | ≤ 0.2 |
| RNFA | 0.301 |
| KMPG | ≤ 0.2 |
| ISNW | ≤ 0.2 |
| RANF | 0.24 |
| GDMG | ≤ 0.2 |
| LAVR | ≤ 0.2 |
| PENR | ≤ 0.2 |
| RTNC | 0.914 |
| GGHS | ≤ 0.2 |
| QNRE | ≤ 0.2 |
| QHFV | ≤ 0.2 |
| ALGG | ≤ 0.2 |

| Variant | one-hybrid fitness for binding parS DNA |
| --- | --- |
| SCSN | ≤ 0.2 |
| RVVI | ≤ 0.2 |
| PRFE | ≤ 0.2 |
| NRKM | ≤ 0.2 |
| DGKF | ≤ 0.2 |
| DCTS | ≤ 0.2 |
| AWKI | ≤ 0.2 |
| RHRG | 0.903 |
| FTEI | ≤ 0.2 |
| QCNS | ≤ 0.2 |
| NPIA | ≤ 0.2 |
| ISPL | ≤ 0.2 |
| QEAN | ≤ 0.2 |
| LSHA | ≤ 0.2 |
| VMAR | ≤ 0.2 |
| PTLG | ≤ 0.2 |
| RIET | 0.709 |
| LKDH | ≤ 0.2 |
| NQNT | ≤ 0.2 |
| QSQD | ≤ 0.2 |
| FRHC | ≤ 0.2 |
| GKRT | ≤ 0.2 |
| DGIC | ≤ 0.2 |
| NAQN | ≤ 0.2 |
| KEGM | ≤ 0.2 |

| Variant | one-hybrid fitness for binding parS DNA |
| --- | --- |
| LYPG | ≤ 0.2 |
| QGRS | ≤ 0.2 |
| ASAF | ≤ 0.2 |
| RDCN | ≤ 0.2 |
| GPPK | ≤ 0.2 |
| MMGR | ≤ 0.2 |
| QNAP | ≤ 0.2 |
| FKYR | ≤ 0.2 |
| SMVF | ≤ 0.2 |
| TPEY | ≤ 0.2 |
| NMMP | ≤ 0.2 |
| NSHK | ≤ 0.2 |
| PDEG | ≤ 0.2 |
| AKYG | ≤ 0.2 |
| DLPG | ≤ 0.2 |
| ENYT | ≤ 0.2 |
| HFIV | ≤ 0.2 |
| ERII | ≤ 0.2 |
| FHHI | ≤ 0.2 |
| KYSC | ≤ 0.2 |
| MTAW | ≤ 0.2 |
| YCKK | ≤ 0.2 |
| RLTV | ≤ 0.2 |
| SKKG | ≤ 0.2 |
| YSIG | ≤ 0.2 |

| Variant | one-hybrid fitness for binding parS DNA |
| --- | --- |
| NYNM | ≤ 0.2 |
| HTKV | ≤ 0.2 |
| MTDS | ≤ 0.2 |
| HPLQ | ≤ 0.2 |
| VCNA | ≤ 0.2 |
| AYNH | ≤ 0.2 |
| KMKC | ≤ 0.2 |
| GGMD | ≤ 0.2 |
| ASHD | ≤ 0.2 |
| FASD | ≤ 0.2 |
| QAIV | ≤ 0.2 |
| FRQV | ≤ 0.2 |
| YDMS | ≤ 0.2 |
| FAKS | ≤ 0.2 |
| QLYI | ≤ 0.2 |
| FPSS | ≤ 0.2 |
| NIRQ | ≤ 0.2 |
| CHAG | ≤ 0.2 |
| RLGL | ≤ 0.2 |
| RYPN | ≤ 0.2 |
| RLCK | ≤ 0.2 |
| KKAL | ≤ 0.2 |
| MQNC | ≤ 0.2 |
